Data: the supplement of paper PMC4967469

Compound: CC[C@H](Nc1ncnc2[nH]cnc12)c1nc2cccc(F)c2c(=O)n1-c1ccccc1 [CAL-101]
Test: Viability of human cancer cell lines after 72 h of drug (GDSC screen)
Procedure: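 Human cancer cell lines in 384-well plates, medium with 10% serum, drug for 72 h over a 256-fold dose range (nine 2-fold or five 4-fold steps up to the top dose). Adherent lines were fixed and stained with the nucleic acid dye Syto60, suspension lines read with resazurin; signal relative to control wells, capped at 0 and 100%. One two-parameter sigmoid per drug and line, fitted in a mixed model over all curves with the slope shared within a line.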

Cell Line	AUC	IC50 [µM]
LS-513 (large intestine, adherent, top dose 20 µM)	0.954	> 20
LS-1034 (large intestine, adherent, top dose 20 µM)	0.962	> 20
LU-65 (large cell lung carcinoma, suspension, top dose 20 µM)	0.955	> 20
LU-99A (large cell lung carcinoma, adherent, top dose 20 µM)	0.98	> 20
LU-134-A (small cell lung carcinoma, suspension, top dose 20 µM)	0.978	> 20
LU-135 (small cell lung carcinoma, suspension, top dose 20 µM)	0.989	> 20
LU-139 (small cell lung carcinoma, suspension, top dose 20 µM)	0.977	> 20
LU-165 (small cell lung carcinoma, suspension, top dose 20 µM)	0.97	> 20
LXF-289 (lung adenocarcinoma, adherent, top dose 20 µM)	0.961	> 20
LoVo (large intestine, adherent, top dose 20 µM)	0.987	> 20
M14 (melanoma, adherent, top dose 20 µM)	0.986	> 20
M059J (glioma, adherent, top dose 20 µM)	0.957	> 20
MC116 (B-cell lymphoma, suspension, top dose 20 µM)	0.98	> 20
MC-CAR (haematopoietic neoplasm, suspension, top dose 20 µM)	0.684	3.83
MC-IXC (neuroblastoma, adherent, top dose 20 µM)	0.995	> 20
MCF7 (breast, adherent, top dose 20 µM)	0.986	> 20
MDA-MB-157 (breast, adherent, top dose 20 µM)	0.984	> 20
MDA-MB-175-VII (breast, adherent, top dose 20 µM)	0.968	> 20
MDA-MB-231 (breast, adherent, top dose 20 µM)	0.978	> 20
MDA-MB-330 (breast, adherent, top dose 20 µM)	0.982	> 20
MDA-MB-361 (breast, adherent, top dose 20 µM)	0.978	> 20

Cell Line	AUC	IC50 [µM]
MDA-MB-415 (breast, adherent, top dose 20 µM)	0.929	> 20
MDA-MB-436 (breast, adherent, top dose 20 µM)	0.974	> 20
MDA-MB-453 (breast, adherent, top dose 20 µM)	0.959	> 20
MDA-MB-468 (breast, adherent, top dose 20 µM)	0.86	15.8
MDST8 (large intestine, adherent, top dose 20 µM)	0.941	> 20
ME-1 (acute myeloid leukaemia, suspension, top dose 20 µM)	0.976	> 20
ME-180 (cervix, adherent, top dose 20 µM)	0.959	> 20
MEG-01 (chronic myeloid leukaemia, suspension, top dose 20 µM)	0.969	> 20
MEL-JUSO (melanoma, adherent, top dose 20 µM)	0.959	> 20
MES-SA (uterus, adherent, top dose 20 µM)	0.978	> 20
MFE-280 (endometrium, adherent, top dose 20 µM)	0.886	> 20
MFE-296 (endometrium, adherent, top dose 20 µM)	0.979	> 20
MFE-319 (endometrium, adherent, top dose 20 µM)	0.968	> 20
MFH-ino (soft tissue, adherent, top dose 20 µM)	0.978	> 20
MFM-223 (breast, adherent, top dose 20 µM)	0.981	> 20
MG-63 (osteosarcoma, adherent, top dose 20 µM)	0.984	> 20
MHH-ES-1 (Ewing sarcoma, adherent, top dose 20 µM)	0.904	> 20
MHH-NB-11 (neuroblastoma, adherent, top dose 20 µM)	0.95	> 20
MHH-PREB-1 (B-cell leukaemia, suspension, top dose 20 µM)	0.978	> 20
MIA-PaCa-2 (pancreas, adherent, top dose 20 µM)	0.975	> 20
MKN1 (stomach, adherent, top dose 20 µM)	0.967	> 20

Cell Line	AUC	IC50 [µM]
MKN28 (stomach, adherent, top dose 20 µM)	0.982	> 20
MKN45 (stomach, adherent, top dose 20 µM)	0.934	> 20
ML-1 (thyroid, adherent, top dose 20 µM)	0.979	> 20
ML-2 (acute myeloid leukaemia, suspension, top dose 20 µM)	0.737	5.41
MLMA (hairy cell leukaemia, semi-adherent, top dose 20 µM)	0.671	3.75
MMAC-SF (melanoma, adherent, top dose 20 µM)	0.97	> 20
MN-60 (B-cell leukaemia, suspension, top dose 20 µM)	0.915	> 20
MOG-G-CCM (glioma, adherent, top dose 20 µM)	0.921	> 20
MOG-G-UVW (glioma, adherent, top dose 20 µM)	0.926	> 20
MOLM-13 (acute myeloid leukaemia, suspension, top dose 20 µM)	0.636	2.9
MOLP-8 (myeloma, suspension, top dose 20 µM)	0.731	5.53
MOLT-13 (T-cell lymphoblastic leukaemia, suspension, top dose 20 µM)	0.968	> 20
MONO-MAC-6 (acute myeloid leukaemia, suspension, top dose 20 µM)	0.778	8.56
MPP-89 (mesothelioma, adherent, top dose 20 µM)	0.98	> 20
MRK-nu-1 (breast, suspension, top dose 20 µM)	0.99	> 20
MS751 (cervix, adherent, top dose 20 µM)	0.983	> 20
MS-1 (small cell lung carcinoma, suspension, top dose 20 µM)	0.963	> 20
MSTO-211H (mesothelioma, adherent, top dose 20 µM)	0.989	> 20
MY-M12 (leukaemia, suspension, top dose 20 µM)	0.923	> 20
MZ1-PC (pancreas, adherent, top dose 20 µM)	0.926	> 20
MZ2-MEL (melanoma, adherent, top dose 20 µM)	0.935	> 20

Cell Line	AUC	IC50 [µM]
MZ7-mel (melanoma, adherent, top dose 20 µM)	0.969	> 20
Mewo (melanoma, adherent, top dose 20 µM)	0.982	> 20
Mo-T (hairy cell leukaemia, suspension, top dose 20 µM)	0.782	8.53
NALM-6 (B-cell leukaemia, suspension, top dose 20 µM)	0.612	2.41
NAMALWA (Burkitt lymphoma, suspension, top dose 20 µM)	0.894	17.4
NB5 (neuroblastoma, adherent, top dose 20 µM)	0.909	> 20
NB6 (neuroblastoma, adherent, top dose 20 µM)	0.929	> 20
NB7 (neuroblastoma, adherent, top dose 20 µM)	0.974	> 20
NB10 (neuroblastoma, adherent, top dose 20 µM)	0.985	> 20
NB12 (neuroblastoma, adherent, top dose 20 µM)	0.955	> 20
NB13 (neuroblastoma, adherent, top dose 20 µM)	0.986	> 20
NB14 (neuroblastoma, adherent, top dose 20 µM)	0.989	> 20
NB17 (neuroblastoma, adherent, top dose 20 µM)	0.964	> 20
NB69 (neuroblastoma, adherent, top dose 20 µM)	0.914	> 20
NB(TU)1-10 (neuroblastoma, adherent, top dose 20 µM)	0.992	> 20
NB-4 (acute myeloid leukaemia, suspension, top dose 20 µM)	0.835	–
NCC021 (kidney, adherent, top dose 20 µM)	0.852	19.7
NCI-H23 (lung adenocarcinoma, adherent, top dose 20 µM)	0.988	> 20

By IC50 is meant the dose at which the fit gives 50% viability; where the fit passes the top or lowest dose, that dose stands as a limit. AUC sums up the same curve from the lowest dose to the 256-fold higher top dose: 1 means no effect, lower means more sensitive.
